Measurements published in article PMC12136788.
The list shows a part of the results.

B1: chr1:163112212:163112213:-_ENSG00000143248_ENST00000313961|hu_hu|hu_hu_hu_mus_False|68_68 (ssRNA)
RNA: GGGAGUUCUACAGUCCGACGAUCUUUUAUUAUCAGUAAGAGUGAGUUACAUACUAGGCAAAGUAUUGAAUACAAAAAUCAGGAAACAAACACUAUUGGUCCAGAAUUUAAAACUUUAUGAGCGAAGUGCUGGCACAGGACUUACAACAGAGGAUUGAGCAUCA
B2: chr19:40030274:40030275:-_ENSG00000176396_ENST00000390658|hu_hu|motif|central (ssRNA)
RNA: GGGAGUUCUACAGUCCGACGAUCCGGGUAAUUUUCCAGAUAGUGGCGGAGAAACUGCUGGUAAUUGAUGCCUAAAACGCGGAGUGGGUGGCGGAGACGGAGAUAGGGCAACGCAGCCAGGCCUCCGUUCCCGUGUCUGGACCUCAACAGAGGAUUGAGCAUCA
B3: chr16:32092491:32092492:-_ENSMUSG00000023791_ENSMUST00000096109|mus_mus|FALSE|FALSE (ssRNA)
RNA: GGGAGUUCUACAGUCCGACGAUCUAAGUUCCUUUCUCGUAGUGAAGCCAACUCAUAGGGAUCCACAAAGAGUCCUGGUGGAAUGUAAUGCUUAAUUAGGAGCCGGCAGGUCUGUAGGUCCUCAAUGCUCUCUCCAAAUUUCACCAACAGAGGAUUGAGCAUCA
B4: 7962896_7963016_1207_3pUTR_ENSG00000125827_ENST00000246024|human|control|control (ssRNA)
RNA: GGGAGUUCUACAGUCCGACGAUCUCUACAGUCCCUUGUCAGCAUGCUGACUUUUACGCUGCCUCAAGGAGUCUUCCACCACCUCUGUGUCAGCUGGGCAGGGUUGCUCAGAGAUGCCUUCUUCAGCCUCCUCAGGCUCUACUUCAACAGAGGAUUGAGCAUCA
B5: 70314851_70314971_327_CDS_ENSG00000169564_ENST00000303577|human|control|control (ssRNA)
RNA: GGGAGUUCUACAGUCCGACGAUCUUUCUUCCCAAUGAUGCUUCCUACUUCCUUUCCGUGCAUAAGAAGCCGAAUGGUGAGAGUCACAUUUAGUCCACUUUCAGUCACACCGGCAUCCAUGGCGAGCGGCGGGCGGCGUUCGGGCAACAGAGGAUUGAGCAUCA
B6: chr7:90019433:90019434:+_ENSMUSG00000057706_ENSMUST00000082237|mus_mus|motif|central (ssRNA)
RNA: GGGAGUUCUACAGUCCGACGAUCAAUAAUACAGUGUUCUUUGCCAUAAGGCCAUACUAAAAAUAAAAAGAUUUAACCCAGCGGCAAAAAAGUUCACUGAACUUAAAUUAAAAUACUUGUAAACAUCUUUGCAAUAUGAAAUAUCAACAGAGGAUUGAGCAUCA
B7: chr1:163112212:163112213:-_ENSG00000143248_ENST00000313961|hu_hu|hu_hu_hu_mus_False|28_58 (ssRNA)
RNA: GGGAGUUCUACAGUCCGACGAUCUUUUAUUAUCAGUAAGAGUGAGUUACAUACUAGGCAAAGUAUUGGAUACAAUAUUCUAAAGAUAAACACUAUUGGUCCAGAAUUUAAAAUAUAAUGAGCGAAGUGCUGGCACAGGACUUACAACAGAGGAUUGAGCAUCA
B8: chr7:73609574:73609575:+_ENSG00000106682_ENST00000353999|hu_hu|FALSE|FALSE (ssRNA)
RNA: GGGAGUUCUACAGUCCGACGAUCUUGCUCCUUUUGAACGACUUCCUCUCUAGGCCUGGCACCCCCGAAGAUAGCAGAGUUGGGAUUGGCUACUUGAUUGAGGGGCGUCGCGACUGUUCGAGGUUUAAGCUGGAGUCGUGGUCUCAACAGAGGAUUGAGCAUCA
B9: chr19:24183184:24183185:-_ENSMUSG00000024812_ENSMUST00000099558|mus_mus|FALSE|FALSE (ssRNA)
RNA: GGGAGUUCUACAGUCCGACGAUCUGUGGCUGUAAAAAGAUGAGAACAGGUCUUUUUGAGCUUGUUGGCUUGAUCAAAUAACUUGCGAGAACUUUUAUUGGAUGUUGGACUCAACCUCUGCCUUAUGGUUUUAACACCUUGUCUCAACAGAGGAUUGAGCAUCA
B10: 27472817_27473668_6071_CDS_ENSG00000077235_ENST00000561623|human|control|control (ssRNA)
RNA: GGGAGUUCUACAGUCCGACGAUCGAAGAGCGAGACAGGCCUUGGCUUUCUCAGCCAGCGCUUCCGGAUGCAGCCGAGGGACUCCAGGCCCUGGAGCAACUCCAGCACGGCGACGGGCUGCAGGACCCCCUGGUAGUGGCGCAGCAACAGAGGAUUGAGCAUCA
B11: chr16:53361121:53361122:+_ENSG00000177200_ENST00000398510|hu_mus|FALSE|FALSE (ssRNA)
RNA: GGGAGUUCUACAGUCCGACGAUCGAGGCCUGAAACAAGGGGUAGACCACAAGGCAACACCAGCUAUAACUCUCUCAGGAACUACCAACACGUACUGGGAUAGCCUUUCAGCUGCAGCUUGAGUAAGUGGGACUGCAUUGACUUCAACAGAGGAUUGAGCAUCA
B12: 88117509_88122337_1104_CDS_ENSMUSG00000001416_ENSMUST00000001452|mouse|control|control (ssRNA)
RNA: GGGAGUUCUACAGUCCGACGAUCGCCUGCCCCUGUACCAACAUCAUCUUCUCUCAGUUCCUCAGGUCGGCUGACUAUCCGUGCCCCACAGGCUCUAGCAAUGCGAUUAUUGUCUGUUUUCCGGACUCUACGAAUGGCUGUGACCAACAGAGGAUUGAGCAUCA
B13: chr16:94690093:94690094:+_ENSMUSG00000040785_ENSMUST00000117648|mus_hu|mus_mus_mus_hu_True|28_88 (ssRNA)
RNA: GGGAGUUCUACAGUCCGACGAUCGGGCUGGGAUGACGGACACACAGAUCUUCCCAGAGGGGGAAAAAGUCUUAGUCGAUACUAAUUAAAAAGUGUUAAUGAUUUUUAUUACCAAAAUUACAUCUAUAAAAGAUGAAAAGCAAACAACAGAGGAUUGAGCAUCA
B14: chr5:145543945:145543946:-_ENSG00000133706_ENST00000545646|hu_hu|hu_hu_hu_mus_True|8_18 (ssRNA)
RNA: GGGAGUUCUACAGUCCGACGAUCCUGAACGGCCAGUGGUGGGAAAUAAUCAAGCCAGUGCUCUGCUUCAGAAAACUUCACUAUGUCGUCAUCAGAGAGCCCAAGGGAUUUCAUAAUGCCCCACUGGUAUUUAGAAGAUCCUGCCAACAGAGGAUUGAGCAUCA
B15: chr2:114697599:114697600:+_ENSG00000115091_ENST00000536059|hu_hu|FALSE|FALSE (ssRNA)
RNA: GGGAGUUCUACAGUCCGACGAUCGGAUUGUUCUGGAGGGAUUCCUACUUCUCGGUCUCUCAGCAGUUGCUGAAUAAAAUAUGUUAUAUCUCGUCCUGCGAUUGGAAUGUGUUUAAUACAGCUGCCAAUCACAUACCCUUCAGCCAACAGAGGAUUGAGCAUCA
B16: 126699911_126700031_156_5pUTR_ENSMUSG00000074657_ENSMUST00000099172|mouse|control|control (ssRNA)
RNA: GGGAGUUCUACAGUCCGACGAUCCAAAGCACCUUGAUGCUGCAUUCGUUGUUAGUCUCCGCCAUGGUGGUCGACGACGACGAGGGGCUGGGAGCGUCUCCGACUGCAAGGGUAGCGUGUACUCCGGAGGAAGGGGACGCUGGGCAACAGAGGAUUGAGCAUCA
B17: chr11:4127340:4127341:+_ENSG00000167325_ENST00000300738|hu_mus|hu_hu_hu_mus_False|68_78 (ssRNA)
RNA: GGGAGUUCUACAGUCCGACGAUCGGCAUAGUCAGGGUGCUUCGUGGUCAAGGUCGCAGCUGUUUCAGCAGCCAAAGUGUCCAGUUCCACUGUGGUGACCCCACUAUAUAGGCCUUGGAUUACUUUCAUGGUGAUCUGAGCAGGCAACAGAGGAUUGAGCAUCA
B18: chr14:89307221:89307222:+_ENSG00000165533_ENST00000346301|hu_mus|hu_hu_hu_mus_False|38_108 (ssRNA)
RNA: GGGAGUUCUACAGUCCGACGAUCUCCUGUCUGAUUAGUGCCAGGGAGCUUCAAAGAUGUGCCAGGGCGUGGGACCUGAGCAAUAGCAUUUUCAUCCAGCAUCAUUUCAGCAAUUCCUUCCUGGUCCACAUCAAUUUCAUCUAUCAACAGAGGAUUGAGCAUCA
B19: chr15:52101961:52101962:+_ENSG00000128872_ENST00000249700|hu_hu|motif|central (ssRNA)
RNA: GGGAGUUCUACAGUCCGACGAUCUAUUUUCCUAUUCACUUGUUUUAUUGCUACUAGGCAACUCAGGAACACUCAGCGGCGGAACAAAUUCUGGAAUUUGUUUAGUAACAAAUUACAGAGAAAAGAGGAAAAAAAAGACAAUGACAACAGAGGAUUGAGCAUCA
B20: 39053079_39055272_849_3pUTR_ENSMUSG00000026753_ENSMUST00000028087|mouse|control|control (ssRNA)
RNA: GGGAGUUCUACAGUCCGACGAUCGAUGAGUUUUAAGUUGUUGAUAUGAACAAACUCAUUUGUGACUUUUGCUCCAAAUAGCCAACCUGCUCCUCUGGGACUGAUUGCCCAAGUGUCCACAUCUUCAGGAUCUGACCACACCAACAACAGAGGAUUGAGCAUCA
B21: chr3:169711627:169711628:+_ENSG00000008952_ENST00000337002|hu_hu|FALSE|FALSE (ssRNA)
RNA: GGGAGUUCUACAGUCCGACGAUCUAAAAACAUACCCUUACAUGGUCUUAAUUUUAUGAAUUUAAGUGUUGAGAAAUAUCUAAAUAAUAAGUAACAAUUAAAAUAAAAUGUUUUAUUUGUAAAUUAUGUACAGAAUACACUUUACAACAGAGGAUUGAGCAUCA
B22: chr17:65740002:65740003:+_ENSG00000130935_ENST00000581375|hu_hu|hu_hu_hu_mus_False|18_98 (ssRNA)
RNA: GGGAGUUCUACAGUCCGACGAUCAACAAAUCUUUCUCUGGAUGAAGAACAGGAAGAUUCAUAUUAAAAAAAAUAUAUAUCCAUCAAGUUAGGUGUGGUGGCCACACCUUUACUCCCCACUUCAAUUGAGGUGGAUCUCUGAGUCAACAGAGGAUUGAGCAUCA

Each binder was assayed against T1, UNK ZnF1-3 (human, UniProt Q9C0B0 31-174) (assay: nsRBNS (natural sequence RNA bind-n-seq); RBNS binding buffer (assumed for nsRBNS): 25 mM Tris pH 7.5, 150 mM KCl, 3 mM MgCl2, 0.01% Triton X-100, 500 ug/ml BSA, 20 U/ml SUPERase-In, 4 C; UNK is unkempt and MSI1 is Musashi-1; names of the RNAs are library labels; protein concentration not given here; high values mean tight binding).
T1 sequence: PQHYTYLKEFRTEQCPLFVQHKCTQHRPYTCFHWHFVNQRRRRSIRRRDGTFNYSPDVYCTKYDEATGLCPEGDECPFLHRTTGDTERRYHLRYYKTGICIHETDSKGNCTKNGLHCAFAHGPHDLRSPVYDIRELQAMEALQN
In the case of B1, the binding signal is reported as 1.27 enrichment R. Binder B2 has a binding signal of 0.867 enrichment R. B3 gave a binding signal of 1.49 enrichment R. Binder B4 has a binding signal of 0.178 enrichment R. For B5, the binding signal was 0.933 enrichment R. Work on B6 yielded a binding signal of 2.62 enrichment R. Work on B7 yielded a binding signal of 1.16 enrichment R. For B8, the binding signal was 0.473 enrichment R. Work on B9 yielded a binding signal of 0.865 enrichment R. B10 showed a binding signal of 0.676 enrichment R. B11 showed a binding signal of 1.01 enrichment R. B12 showed a binding signal of 0.863 enrichment R. For B13, the binding signal was 1.8 enrichment R. With B14 the binding signal was 0.928 enrichment R. For B15, the binding signal was 1.1 enrichment R. B16 showed a binding signal of 0.66 enrichment R. B17 gave a binding signal of 0.918 enrichment R. In the case of B18, the binding signal is reported as 0.971 enrichment R. Binder B19 has a binding signal of 1.01 enrichment R. Work on B20 yielded a binding signal of 1.11 enrichment R. Binder B21 has a binding signal of 0.945 enrichment R. For B22, the binding signal was 1.3 enrichment R.
